The supplement of paper PMC8728848
The list shows a part of the results.

Key:
Test in all cases: glycan array binding signal (z-score within array); higher = stronger binding
Settings in all cases: glycan notation: IUPAC condensed, linker removed
GlcNAc(b1-6)GalNAc = target: GlcNAc(b1-6)GalNAc
Procedure, shortened: (§1)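 Glycan array data came from 3228 arrays in the Consortium for Functional Glycomics database, and only arrays with an available protein sequence were kept. Glycan names were put into IUPAC-condensed notation, and columns mapping to the same glycan were averaged. The binding signal is a within-array Z-score, averaged across arrays of one protein sequence run at different concentrations or buffers and across linkers. A negative Z-score can be read as non-binding.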

GlcNAc3Prop(b1-4)GlcNAc = target: GlcNAc3Prop(b1-4)GlcNAc
Procedure, shortened: as §1

[1] = target: GlcNAc6S(b1-3)Gal(b1-4)GlcNAc
Procedure, shortened: as §1

Kdn(a2-3)Gal(b1-3)GalNAc = target: Kdn(a2-3)Gal(b1-3)GalNAc
Procedure, shortened: as §1

Kdn(a2-3)Gal(b1-3)GlcNAc = target: Kdn(a2-3)Gal(b1-3)GlcNAc
Procedure, shortened: as §1

Kdn(a2-3)Gal(b1-4)Glc = target: Kdn(a2-3)Gal(b1-4)Glc
Procedure, shortened: as §1

Kdn(a2-3)Gal(b1-4)GlcNAc = target: Kdn(a2-3)Gal(b1-4)GlcNAc
Procedure, shortened: as §1

[2] = target: Kdn(a2-3)Gal(b1-4)[Fuc(a1-3)]GlcNAc
Procedure, shortened: as §1

Kdn(a2-6)Gal(b1-4)GlcNAc = target: Kdn(a2-6)Gal(b1-4)GlcNAc
Procedure, shortened: as §1

[3] = target: Man(a1-2)Man(a1-2)Man(a1-3)Man
Procedure, shortened: as §1

[4] = target: Man(a1-2)Man(a1-2)Man(a1-6)[Man(a1-3)]Man
Procedure, shortened: as §1

Man(a1-2)Man(a1-3)Man = target: Man(a1-2)Man(a1-3)Man
Procedure, shortened: as §1

[5] = target: Man(a1-2)Man(a1-3)[Man(a1-2)Man(a1-6)]Man
Procedure, shortened: as §1

[6] = target: Man(a1-2)Man(a1-3)[Man(a1-2)Man(a1-6)]Man(a1-6)[Man(a1-2)Man(a1-2)Man(a1-3)]Man
Procedure, shortened: as §1

[7] = target: Man(a1-2)Man(a1-3)[Man(a1-2)Man(a1-6)]Man(a1-6)[Man(a1-2)Man(a1-2)Man(a1-3)]Man(b1-4)GlcNAc(b1-4)GlcNAc
Procedure, shortened: as §1

[8] = target: Man(a1-2)Man(a1-3)[Man(a1-6)]Man(a1-6)[Man(a1-2)Man(a1-3)]Man(b1-4)GlcNAc(b1-4)GlcNAc
Procedure, shortened: as §1

[9] = target: Man(a1-2)Man(a1-6)[Man(a1-3)]Man(a1-6)[Man(a1-2)Man(a1-2)Man(a1-3)]Man
Procedure, shortened: as §1

[10] = target: Man(a1-2)Man(a1-6)[Man(a1-3)]Man(a1-6)[Man(a1-2)Man(a1-2)Man(a1-3)]Man(b1-4)GlcNAc(b1-4)GlcNAc
Procedure, shortened: as §1

Man(a1-3)[Man(a1-6)]Man = target: Man(a1-3)[Man(a1-6)]Man
Procedure, shortened: as §1

[11] = target: Man(a1-3)[Man(a1-6)]Man(a1-6)[Man(a1-2)Man(a1-3)]Man(b1-4)GlcNAc(b1-4)GlcNAc
Procedure, shortened: as §1

[12] = target: Man(a1-3)[Man(a1-6)]Man(a1-6)[Man(a1-3)]Man
Procedure, shortened: as §1

[13] = target: Man(a1-3)[Man(a1-6)]Man(a1-6)[Man(a1-3)]Man(b1-4)GlcNAc(b1-4)GlcNAc
Procedure, shortened: as §1

[14] = target: Man(a1-3)[Man(a1-6)]Man(b1-4)GlcNAc(b1-4)GlcNAc
Procedure, shortened: as §1

Man(a1-6)Man = target: Man(a1-6)Man
Procedure, shortened: as §1

Man(b1-4)GlcNAc = target: Man(b1-4)GlcNAc
Procedure, shortened: as §1

Neu5Ac(a2-3)Gal = target: Neu5Ac(a2-3)Gal
Procedure, shortened: as §1

[15] = target: Neu5Ac(a2-3)Gal(b1-3)GalNAc
Procedure, shortened: as §1

[16] = target: Neu5Ac(a2-3)Gal(b1-3)GalNAc(b1-3)Gal(a1-4)Gal(b1-4)Glc
Procedure, shortened: as §1

[17] = target: Neu5Ac(a2-3)Gal(b1-3)GalNAc(b1-3)Gal(b1-4)GlcNAc
Procedure, shortened: as §1

[18] = target: Neu5Ac(a2-3)Gal(b1-3)GalNAc(b1-4)[Neu5Ac(a2-3)]Gal(b1-4)Glc
Procedure, shortened: as §1

[19] = target: Neu5Ac(a2-3)Gal(b1-3)GalNAc6S
Procedure, shortened: as §1

[20] = target: Neu5Ac(a2-3)Gal(b1-3)GlcNAc
Procedure, shortened: as §1

[21] = target: Neu5Ac(a2-3)Gal(b1-3)GlcNAc(b1-3)Gal(b1-3)GlcNAc
Procedure, shortened: as §1

[22] = target: Neu5Ac(a2-3)Gal(b1-3)GlcNAc6S
Procedure, shortened: as §1

[23] = target: Neu5Ac(a2-3)Gal(b1-3)[Fuc(a1-4)]GlcNAc
Procedure, shortened: as §1

[24] = target: Neu5Ac(a2-3)Gal(b1-3)[Fuc(a1-4)]GlcNAc(b1-3)Gal(b1-3)[Fuc(a1-4)]GlcNAc
Procedure, shortened: as §1

B1: Spy0252 (Streptococcus pyogenes), Q9A1I9_STRP1 (protein)
chain: MNMKKLASLAMLGASVLGLAACGGKSQKEAGASKSDTAKTEITWWAFPVFTQEKAEDGVGTYEKKLIAAFEKANPEIKVKLETIDFTSGPEKITTAIEAGTAPDVLFDAPGRIIQYGKNGKLADLNDLFTEEFTKDVNNDKLIQASKAGDTAYMYPISSAPFYMALNKKMLKDAGVLDLVKEGWTTDDFEKVLKALKDKGYNPGSFFANGQGGDQGPRAFFANLYSSHITDDKVTKYTTDDANSIKAMTKISNWIKDGLMMNGSQYDGSADIQNFANGQTSFTILWAPAQPGIQAKLLEASKVDYLEIPFPSDDGKPELEYLVNGFAVFNNKDEQKVAASKTFIQFIADDKEWGPKNVVRTGAFPVRTSYGDLYKDKRMEKIAEWTKFYSPYYNTIDGFAEMRTLWFPMVQAVSNGDEKPEDALKAFTEKANKTIKKTQ
glycan array binding signal (z-score) (GlcNAc(b1-6)GalNAc): -0.204
glycan array binding signal (z-score) (GlcNAc3Prop(b1-4)GlcNAc): 0.218
glycan array binding signal (z-score) [1]: -0.161
glycan array binding signal (z-score) (Kdn(a2-3)Gal(b1-3)GalNAc): -0.249
glycan array binding signal (z-score) (Kdn(a2-3)Gal(b1-3)GlcNAc): -0.248
glycan array binding signal (z-score) (Kdn(a2-3)Gal(b1-4)Glc): 0.495
glycan array binding signal (z-score) (Kdn(a2-3)Gal(b1-4)GlcNAc): -0.267
glycan array binding signal (z-score) [2]: -0.26
glycan array binding signal (z-score) (Kdn(a2-6)Gal(b1-4)GlcNAc): -0.273
glycan array binding signal (z-score) [3]: -0.235
glycan array binding signal (z-score) [4]: -0.258
glycan array binding signal (z-score) (Man(a1-2)Man(a1-3)Man): -0.211
glycan array binding signal (z-score) [5]: -0.267
glycan array binding signal (z-score) [6]: -0.264
glycan array binding signal (z-score) [7]: -0.273
glycan array binding signal (z-score) [8]: -0.253
glycan array binding signal (z-score) [9]: -0.265
glycan array binding signal (z-score) [10]: -0.236
glycan array binding signal (z-score) (Man(a1-3)[Man(a1-6)]Man): -0.267
glycan array binding signal (z-score) [11]: -0.273
glycan array binding signal (z-score) [12]: -0.272
glycan array binding signal (z-score) [13]: -0.271
glycan array binding signal (z-score) [14]: -0.269
glycan array binding signal (z-score) (Man(a1-6)Man): -0.283
glycan array binding signal (z-score) (Man(b1-4)GlcNAc): -0.263
glycan array binding signal (z-score) (Neu5Ac(a2-3)Gal): -0.256
glycan array binding signal (z-score) [15]: -0.243
glycan array binding signal (z-score) [16]: 0.826
glycan array binding signal (z-score) [17]: -0.267
glycan array binding signal (z-score) [18]: -0.256
glycan array binding signal (z-score) [19]: -0.268
glycan array binding signal (z-score) [20]: -0.26
glycan array binding signal (z-score) [21]: -0.195
glycan array binding signal (z-score) [22]: -0.246
glycan array binding signal (z-score) [23]: -0.279
glycan array binding signal (z-score) [24]: 0.235
